Test results published in ChEMBL document CHEMBL1201862, “PubChem BioAssay data set” (2004).

The compounds below were run on NCI-H322M (assay: inhibition of tumour cell growth, NCI panel, 48 h).
`C[C@H](CCC(=O)O[C@@H]1CC[C@@]2(C)C(CC[C@H]3[C@@H]4CC[C@H]([C@H](C)CCc5nc6ccccc6[nH]5)[C@@]4(C)CC[C@@H]32)C1)[C@H]1CC[C@H]2[C@@H]3CCC4C[C@H](O)CC[C@]4(C)[C@H]3CC[C@]12C` (stereo partly specified) was tested, and the GI50 was inactive: > 100 µM. `COC(=O)[C@@H]1C[C@H]([Se]c2ccccc2)CN1C(=O)OCc1ccccc1` was tested, and the GI50 was inactive: > 100 µM. `NC1CCCCC1.O=P(O)(O)C(CSc1ccccc1)P(=O)(O)O` was tested, and the GI50 was inactive: > 100 µM. With `Cc1ccc(N2Cc3c(ccc4ccccc34)OP2(=O)Oc2ccc(Cl)c(C)c2)cc1` (stereo unspecified) the GI50 was inactive: > 60.8 µM. With `COC(=O)[C@H](COC(C)(C)C)NC(=O)N[C@H](C)c1ccccc1` the GI50 was inactive: > 100 µM. `O=C(O)c1cc2c(cc1CC(Cc1ccccc1)C(=O)O)CCC2` (stereo unspecified) was tested, and the GI50 was inactive: > 100 µM. `Nc1ccc2c(=S)c3ccccc3[nH]c2c1` was tested, and the GI50 was inactive: 48.5 µM. With `CCN(CC)c1ccc(/N=N/c2ccc(-c3nc4cccnc4o3)cc2)cc1` the GI50 was inactive: > 100 µM. In the case of `N=C(N)SC(c1ccccc1)c1ccccc1`, the GI50 is reported as inactive: 22 µM. For `CCOC(=O)C(NC(=O)CC)(Nc1ccccc1F)C(F)(F)F` (stereo unspecified), the GI50 was inactive: > 100 µM. In the case of `C/C=C/C1=C(Cl)C(=O)[C@@H](Cl)[C@@]1(O)C(=O)OC` [(+)-CRYPTOSPORIPSIN], the GI50 is reported as inactive: 15.4 µM. In the case of `CCOC(=O)C1N(S(=O)(=O)c2ccc(C)cc2)CCC12c1ccccc1N(C(C)=O)C2c1ccc(OC)c(OC)c1` (stereo unspecified), the GI50 is reported as inactive: > 100 µM. For `Cc1cc2cc3c(Cl)c(CCCl)c(C)nc3cc2c(Cl)c1CCCl`, the GI50 was inactive: 21.1 µM. In the case of `O=C(O)CN1C(=O)c2ccc(NC(=O)C(=O)O)cc2S1(=O)=O`, the GI50 is reported as inactive: > 100 µM. In the case of `C[n+]1c(-c2ccc(/C=N/NC(=O)C(=O)N/N=C/c3ccc(-c4cn5ccccc5[n+]4C)cc3)cc2)cn2ccccc21`, the GI50 is reported as inactive: > 100 µM. `OC12c3ccccc3C1CCCCCC21OCCCO1` (stereo unspecified) was tested, and the GI50 was inactive: > 100 µM. `OCC(O)CNc1ncnc2ccccc12` (stereo unspecified) was tested, and the GI50 was inactive: > 100 µM. For `O=c1n(CCCCn2c(=O)n(CC3CS3)c3ccccc32)c2ccccc2n1CC1CS1` (stereo unspecified), the GI50 was inactive: 40.8 µM. `CCOC(=O)C(NC(=O)CC(C)C)(Nc1ccc(C(F)(F)F)cc1)C(F)(F)F` (stereo unspecified) was tested, and the GI50 was inactive: > 100 µM. With `Cc1ccc(S(=O)(=O)N(CC(O)COc2ccccc2)c2c(F)c(F)c(F)c(F)c2F)cc1` (stereo unspecified) the GI50 was inactive: 20.2 µM. For `Cc1cc([C@H](C#N)c2nc3ccccc3[nH]2)nc(Cl)n1`, the GI50 was inactive: 23.8 µM. In the case of `C=C(CN(C)C)C(=O)c1ccc(OC)cc1`, the GI50 is reported as inactive: 19.2 µM. `CSc1cc(Cl)c(C)cc1S(=O)(=O)NC(=O)NNc1ccc(F)cc1` was tested, and the GI50 was inactive: > 100 µM. `N#CCCN(CCC#N)c1ccc(/C=N\c2nc(-c3ccccc3)cs2)cc1` was tested, and the GI50 was inactive: > 100 µM. `CCc1cccc(CC)c1NC(=O)C1=CNC(C)=C(C(=O)Nc2c(CC)cccc2CC)C1c1ccc(O)c(OC)c1` (stereo unspecified) was tested, and the GI50 was inactive: 42.7 µM. For `COc1cc(CC(C)C(C)Cc2ccc(O)c(OC)c2)ccc1O` (stereo unspecified) [DIHYDROGUAIARETIC ACID], the GI50 was inactive: 21.2 µM. `O=C(/C=C1\N=C(c2ccccc2)N(c2nc3c(Cl)cc(Cl)cc3s2)C1=O)/C=C/c1ccccc1` was tested, and the GI50 was inactive: > 100 µM. With `CN(C)c1nc(N(C)C)nc(N(C)C)n1` [ALTRETAMINE] the GI50 was inactive: > 150 µM. For `N#CC(c1ccccc1)N(CCc1ccccc1)C(=O)c1ccc(C(=O)N(CCc2ccccc2)C(C#N)c2ccccc2)cc1` (stereo unspecified), the GI50 was inactive: 26.2 µM. In the case of `O=C1C=CC(=O)N1Nc1ccc([N+](=O)[O-])cc1[N+](=O)[O-]`, the GI50 is reported as inactive: > 100 µM. With `c1ccc2c(-c3csc(-c4c[nH]c5ccccc45)n3)c[nH]c2c1` the GI50 was inactive: > 100 µM. For `Cc1ccc(S(=O)(=O)N2CCCN(S(=O)(=O)c3ccc(C)cc3)CC2)cc1`, the GI50 was inactive: > 100 µM. In the case of `CS(=O)(=O)N1CC(CI)c2ccc(O)cc21` (stereo unspecified), the GI50 is reported as inactive: 4.94 µM. With `C#Cc1c(C)c(/C=C/C(C)=C\C(=O)OC)n(C)c1C` the GI50 was inactive: > 100 µM. In the case of `CCc1cccc(CC)c1NC(=O)/C(Cl)=C(/Cl)C(=O)O`, the GI50 is reported as inactive: > 100 µM. In the case of `CC(C)(C)N(Cc1ccc2c(c1)OCO2)C(=O)/C=C\[S+]([O-])c1ccccc1` (stereo unspecified), the GI50 is reported as inactive: 12.1 µM. With `CN1C(=O)C(O)CC1c1ccccc1C(F)(F)F` (stereo unspecified) the GI50 was inactive: > 100 µM. In the case of `OCC(O)COc1ccc(F)cc1` (stereo unspecified), the GI50 is reported as inactive: > 100 µM. For `Cc1ccc(S(=O)(=O)N2CC3OC(C)(C)OC3C2CO)cc1` (stereo unspecified), the GI50 was inactive: > 100 µM. With `Cc1ccc(C(=O)CC(Cl)=C(Cl)Cl)cc1` the GI50 was inactive: > 100 µM. With `CCSCN(C)c1nc(N(C)C)nc(N(C)C)n1` the GI50 was inactive: > 100 µM. With `Nc1nc(N)c2ncn(-c3ccc(Cl)cc3)c2n1` the GI50 was inactive: 57.3 µM. For `Cc1cn(CC2=NCCCN2)c(=O)[nH]c1=O`, the GI50 was inactive: > 100 µM. In the case of `Cn1c2c([N+](=O)[O-])cccc2c(=O)c2c(O)cc3c(c21)C=CC(C)(C)O3`, the GI50 is reported as inactive: 72.1 µM. With `COC(=O)C1=C(\O)C[C@@]2(C)CC[C@@H](C(=O)OC)C2C/C=C\1C(=O)OC` (stereo partly specified) the GI50 was inactive: > 100 µM. For `CCOC(=O)c1cccc(/N=N/c2ncc(/C=C/C(=O)OC)[nH]2)c1`, the GI50 was inactive: 20.6 µM. `O=Cc1cccc2ccc3ccccc3c12` was tested, and the GI50 was inactive: 20.4 µM. In the case of `CCOC(=O)c1ccc(OCc2nc3cc(C(F)(F)F)ccc3nc2-c2ccccc2)cc1`, the GI50 is reported as inactive: > 100 µM. With `CN(C)c1ccc(/C=C/c2ccc3ccccc3[n+]2C)cc1` the GI50 was inactive: 4.73 µM. With `CC(=O)O[C@H]1[C@H](O[C@H]2CC[C@]34C[C@]35CC[C@]3(C)[C@@H]([C@@]6(C)CC[C@@H](C(C)(C)O)O6)[C@@H](O)C[C@@]3(C)[C@@H]5C[C@H](O[C@@H]3O[C@H](CO)[C@@H](O)[C@H](O)[C@H]3O)[C@H]4C2(C)C)OC[C@@H](O)[C@@H]1O` the GI50 was inactive: > 100 µM. For `Nc1nc(Cl)cc(Oc2ccc(Cl)cc2)n1`, the GI50 was inactive: > 43.9 µM. For `Nc1nc(N)c2c(n1)NC(=O)c1c(c3ccccc3n1Cc1ccc(Cl)cc1)C2`, the GI50 was inactive: 21.9 µM. `O=CC(O)C(O)C(O)C(O)C(=O)NCCCCCCCCCCCCNC(=O)C(O)C(O)C(O)C(O)C=O` (stereo unspecified) was tested, and the GI50 was inactive: > 100 µM. `c1ccc2c(c1)Cc1c(Cc3csc4ccccc34)ccc3cccc-2c13` was tested, and the GI50 was inactive: > 100 µM. With `O=C(O)c1cc(CCc2ccc(O)c(O)c2)ccc1O` the GI50 was inactive: > 100 µM. `CCC1C(NC(=O)OC)C(=O)N1[C@@H](C)c1ccccc1` (stereo partly specified) was tested, and the GI50 was inactive: > 100 µM. In the case of `CCN(CC)CCCC(C)Nc1cc(/C=C/c2ccc(Cl)cc2)nc2cc(N(C)C)ccc12` (stereo unspecified), the GI50 is reported as inactive: 1.83 µM. `O=C1c2ccccc2-c2nc3ccncc3n21` was tested, and the GI50 was inactive: > 100 µM. `CCOc1cc(/C=C2\N=C(c3ccccc3)N(c3nc4ccccc4s3)C2=O)ccc1O` was tested, and the GI50 was inactive: 70.6 µM. For `O=C(CN(c1ccccc1)c1ccccc1)n1nnc2ccccc21`, the GI50 was inactive: 97.7 µM. For `Cc1ccc(NC(=O)SCCC(=O)O)cc1`, the GI50 was inactive: > 100 µM. With `O=C(CN1CCOCC1)Nc1nc(-c2ccc(Cl)cc2)cs1` the GI50 was inactive: 41.7 µM. `[O-][S+](Nc1ccccc1)c1ccc(N2CCOCC2)cc1` (stereo unspecified) was tested, and the GI50 was inactive: > 100 µM. `O=C(c1ccco1)N(C(=S)OCCOc1ccccc1)c1ccccc1` was tested, and the GI50 was inactive: 22.4 µM. With `CC(=O)OC1COC(N2C(=O)C(=O)c3cc(Br)c([N+](=O)[O-])cc32)C(OC(C)=O)C1OC(C)=O` (stereo unspecified) the GI50 was inactive: > 100 µM. For `CC1=CCP(C(F)(F)F)P(C(F)(F)F)C1` (stereo unspecified), the GI50 was inactive: > 100 µM. With `O=C1C(Cl)C(c2ccccc2)N1n1cnc2ccccc2c1=O` (stereo unspecified) the GI50 was inactive: > 100 µM. In the case of `C=C(C)[C@@H]1CCC2=C[C@H](C/C(C)=C\C3=CC(C)=C(O3)[C@H]1O)OC2=O`, the GI50 is reported as inactive: > 100 µM. `CCOC(=O)[C@H](O)[C@@H](O)C(=O)NCc1ccc(C(=O)c2ccccc2)cc1` was tested, and the GI50 was inactive: > 100 µM. In the case of `CC(C)=CCCc1c(C)ccc2c1C(=O)C(=O)C(C(C)C)=C2`, the GI50 is reported as inactive: > 22 µM. With `O=C1NCCS(=O)(=O)N2CCC[C@@H]12` the GI50 was inactive: > 100 µM. `COC(=O)[C@@H]1[C@@H]2NC(=S)N[C@@]1(C)Oc1ccccc12` was tested, and the GI50 was inactive: 37 µM. With `OC(c1ccoc1)c1cc2ccccc2s1` (stereo unspecified) the GI50 was inactive: > 10 µM. For `CC(C)[C@@H]1NC(=O)[C@@H]2N=C(O[C@H]2C)[C@H](C(C)C)NC(=O)C2N=C1O[C@H]2C`, the GI50 was inactive: > 100 µM. With `COc1ccc(CCc2ccc(O)c(C(=O)O)c2)cc1OC` the GI50 was inactive: > 100 µM. `COc1cccc(/C=N/n2c(C)n[nH]c2=O)c1` was tested, and the GI50 was inactive: > 100 µM. For `CCN(CCC#N)C(=O)Nc1ccccc1`, the GI50 was inactive: > 100 µM. In the case of `CC(NC(=O)C(Cc1ccc(OC(=O)c2ccccc2)cc1)NC(=O)OC(C)(C)C)C(=O)NCC(=O)NC(Cc1ccccc1)C(=O)NN` (stereo unspecified), the GI50 is reported as inactive: > 100 µM. For `O=C1CCNC/C1=C\c1ccccc1`, the GI50 was inactive: 31 µM. With `COc1ccc2[nH]c3c(C)c4ccnc(NCCCN(C)CCCN)c4c(C)c3c2c1` the GI50 was active: 0.243 µM. `Cc1ccc(NC(=O)/C(=N/NC(=O)CC#N)C2C(=O)N(c3ccccc3)N=C2N)cc1C` (stereo unspecified) was tested, and the GI50 was inactive: > 100 µM. With `CSC1=C(C)C(/C=N/Nc2ccc([N+](=O)[O-])cc2)=C(C)N(c2ccccc2)S1(=O)=O` the GI50 was inactive: > 100 µM. With `CC(=O)NCCC1CN(C(=O)/C=C\I)c2ccccc21` (stereo unspecified) the GI50 was inactive: 16.1 µM. For `Cc1nc2ccccc2n1CCc1nc2ccccc2s1`, the GI50 was inactive: > 100 µM. With `CCc1nc(N)nc(C(=O)NCCNC(=O)c2nc(N)nc(CC)c2C)c1C` the GI50 was inactive: > 100 µM. With `C/C(=C/CC[C@](C)(OC1OC(CO)C(O)C(O)C1OC1OC(C)C(O)C(O)C1O)[C@H]1CC[C@]2(C)[C@@H]1CC[C@@H]1[C@@]3(C)CC[C@H](O)C(C)(C)[C@@H]3C[C@H](O)[C@]12C)CO` (stereo partly specified) the GI50 was inactive: > 100 µM. `C/C=C\C(C)=C/C(C)C(=O)CC(O)CC1CC(=O)NC(=O)C1` (stereo unspecified) was tested, and the GI50 was inactive: 21.3 µM. With `COc1cc(/C=C2\CCC(C)C3=C(c4cc(OC)c(OC)c(OC)c4)C(C#N)=C(N)OC32)cc(OC)c1OC` (stereo unspecified) the GI50 was inactive: 3.83 µM. In the case of `Cc1cc(OCC(=O)O)c(Cl)cc1Cl`, the GI50 is reported as inactive: > 100 µM. With `O=C1NC(=O)C2C1N(Cc1ccccc1)C(=O)N2Cc1ccccc1` (stereo unspecified) the GI50 was inactive: > 100 µM. For `Cn1cnc(N)c(N=O)c1=O`, the GI50 was inactive: > 10 µM.

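Five compound concentrations were applied to cells in 96-well plates for 48 hours; endpoints were derived by simple linear interpolation of the resulting dose-response curve. Here, GI50 denotes the concentration required for 50% inhibition of growth.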 Active and inactive are the calls of the source. Rule as the data show it: active = GI50 up to about 1.1 µM and inactive = higher.
